At least one read-out could not be matched to a standard name with certainty. Marks after values point to notes of the source that are not given here.
system: KK-Ay male mice; test: Blood sugar and blood triglyceride (TG) lowering test in KK-Ay mice, test compound mixed with powder food; format: in vivo; details: KK-Ay male mice; dose c.a. 30 mg/kg/day (footnote a) mixed with powder food for four days; blood taken 5th day; vs control group
Excerpt: The effect of the compound of the present invention on reducing blood sugar and blood lipid levels based on the ability of improving insulin resistance has been determined by the following test.
KK-Ay male mice of five to six week age were obtained from Nihon CREA. The mice have been bred with a powder feed (MF powders for breeding rats and mice, Oriental Yeast Co.) from 7 days prior to the test. The mice of nine to eighteen week age having body weights of 35 g or more were used for the test.
The blood sugar values were measured by withdrawing blood (20 µl) from animal's tail vein using a heparin-treated capillary, centrifuging the blood to obtain plasma, and measuring the glucose level in the plasma by the glucose-oxidase method. The triglyceride (TG) levels in plasma were measured by the glycerol enzyme method. Five mice in a group having 200 mg/dl or more of the blood sugar level were used for one test.
The test compounds were mixed with powder food such that the average dosage of the former is 10 - 100 mg/kg/day, and the mixture was administered to the mice for four days. Blood was withdrawn from the animal's tail vein before administration, and five days after administration, and blood sugar and TG levels were measured using the methods mentioned above. The amount of the food ingested was measured every day during the test period, and the average of the amounts for four days was calculated.
The ability of reducing blood sugar level was determined as described below. Namely, the means of the blood sugar values at the time before administration of the test compound in a control group (a group to which the test compound was not administered) and an administration group (a group to which the test compound was administered) (such values are referred to as Mcon and Mad, respectively) and the means of the blood sugar values of the control group and the administration group on 5th day after administration (such values are referred to as Con and Ad, respectively) were determined. The blood sugar lowering effect found in the administration group was expressed by the following formula. Blood sugar lowering effect(%) = 1-(Ad/Mad)/(Con/Mcon)x100 [formula]
The blood TG lowering ratio (%) was measured by the same procedure as that described above. All the values were statistically evaluated under significance level P=0.05.

SMILES	Blood sugar lowering ratio (%)
O=C1NC(=O)C(=Cc2ccc3cc(OCc4ccccc4)ccc3c2)S1 [Example 13, 5-(6-benzyloxy-2-naphthyl)-methylene-thiazolidine-2,4-dione]	41.5** %
O=C1NC(=O)C(=Cc2ccc3cc(OCc4ccccc4F)ccc3c2)S1 [Example 15, 5-[6-(2-fluorobenzyloxy)-2-naphthyl]-methylene-thiazolidine-2,4-dione]	48.6*** %
O=C1NC(=O)C(=Cc2ccc3cc(OCc4cccc(F)c4)ccc3c2)S1 [compound 16]	37.2* %
O=C1NC(=O)C(=Cc2ccc3cc(OCc4ccc(F)cc4)ccc3c2)S1 [compound 17]	35.9*** %
O=C1NC(=O)C(=Cc2ccc3cc(OCc4c(F)cccc4F)ccc3c2)S1 [compound 49]	39.6** %
O=C1NC(=O)C(=Cc2ccc3cc(OCc4c(F)cccc4C(F)(F)F)ccc3c2)S1 [compound 50]	41.1* %

same assay, conditions: KK-Ay male mice; dose c.a. 50 mg/kg/day mixed with powder food for four days; blood taken 5th day; vs control group

SMILES	Blood sugar lowering ratio (%)
O=C1NC(=O)C(=Cc2ccc3cc(OCc4ccccc4Cl)ccc3c2)S1 [compound 18]	54.4*** %
O=C1NC(=O)C(=Cc2ccc3cc(OCc4ccc(Cl)cc4)ccc3c2)S1 [compound 19]	34.4*** %
O=C1NC(=O)C(=Cc2ccc3cc(OCc4ccc(Br)cc4)ccc3c2)S1 [compound 21]	12.7%
Cc1ccccc1COc1ccc2cc(C=C3SC(=O)NC3=O)ccc2c1 [compound 22]	31.2* %
N#Cc1ccc(COc2ccc3cc(C=C4SC(=O)NC4=O)ccc3c2)cc1 [compound 32]	31.7* %
O=C1NC(=O)C(=Cc2ccc3cc(OCc4ccccc4[N+](=O)[O-])ccc3c2)S1 [compound 33]	28.9%
O=C1NC(=O)C(=Cc2ccc3cc(OCc4ccc([N+](=O)[O-])cc4)ccc3c2)S1 [compound 35]	45.8*** %
COC(=O)c1ccc(COc2ccc3cc(C=C4SC(=O)NC4=O)ccc3c2)cc1 [compound 39]	17.1%
O=C1NC(=O)C(=Cc2ccc3cc(OCc4ccccc4C(F)(F)F)ccc3c2)S1 [compound 46]	48.1*** %
O=C1NC(=O)C(=Cc2ccc3cc(OCc4ccc(C(F)(F)F)cc4)ccc3c2)S1 [compound 48]	58.5*** %

same assay, conditions: KK-Ay male mice; dose c.a. 100 mg/kg/day (footnote b) mixed with powder food for four days; blood taken 5th day; vs control group

SMILES	Blood sugar lowering ratio (%)
O=C1NC(=O)C(=Cc2ccc3cc(OCCc4ccccc4)ccc3c2)S1 [compound 14]	35.2** %

same assay, conditions: KK-Ay male mice; mixed with powder food for four days; Dose: c.a. 10 mg/kg/day; plasma glucose (glucose-oxidase method) on 5th day vs control group

SMILES	Blood sugar lowering ratio (%)
O=C1NC(=O)C(Cc2ccc3cc(OCc4ccccc4)ccc3c2)S1 (stereo not drawn) [Example 2]	27.6** %
O=C1NC(=O)C(Cc2ccc3cc(OCc4ccccc4F)ccc3c2)S1 (stereo not drawn) [Example 4, 5-[6-(2-fluorobenzyloxy)-2-naphthyl]-methyl-thiazolidine-2,4-dione]	37.5** %
O=C1NC(=O)C(Cc2ccc3cc(OCc4ccc(F)cc4)ccc3c2)S1 (stereo not drawn) [Example 6]	37.2*** %
O=C1NC(=O)C(Cc2ccc3cc(OCc4ccccc4Cl)ccc3c2)S1 (stereo not drawn) [Example 7]	33.7* %
O=C1NC(=O)C(Cc2ccc3cc(OCc4ccc(Cl)cc4)ccc3c2)S1 (stereo not drawn) [Example 8]	10.9%
O=C1NC(=O)C(Cc2ccc3cc(OCc4ccccc4C(F)(F)F)ccc3c2)S1 (stereo not drawn) [Example 10]	56.2*** %
CCc1ccc(CCOc2ccc(CC3SC(=O)NC3=O)cc2)nc1 (stereo not drawn) [Pioglitazone, pioglitazone, reference compound]	17.5* %

same assay, conditions: KK-Ay male mice; mixed with powder food for four days; footnote a): Dose c.a. 100 mg/kg/day; plasma glucose (glucose-oxidase method) on 5th day vs control group

SMILES	Blood sugar lowering ratio (%)
Cc1c(C)c2c(c(C)c1O)CCC(C)(COc1ccc(CC3SC(=O)NC3=O)cc1)O2 (stereo not drawn) [CS-045, reference compound]	40.2** %
O=C1NC(=O)C(Cc2ccc3cc(OCc4ccccn4)ccc3c2)S1 (stereo not drawn) [Example 1, 5-[6-(2-pyridylmethyloxy)-2-naphthyl]-methyl-thiazolidine-2,4-dione]	31.6** %
O=C1NC(=O)C(Cc2ccc3cc(Oc4ccccc4)ccc3c2)S1 (stereo not drawn) [Example 3]	13.5%

Reference: patent EP0604983B1, “Naphthalene derivatives” (Mitsubishi Chemical Corporation, priority 1992, dated 1994)
